PMC6212790
This is one part of the list. At the low end of the ranking, values are background and their order means little.

The sequences below were run against T1, GST-Rok (full length) (UniProt O34857) (assay: protein binding microarray). Conditions: Rok is a gene silencer of Bacillus subtilis; high values mean tight binding; most listed sequences are background and not binding sites; double strand, one strand shown.
T1 sequence: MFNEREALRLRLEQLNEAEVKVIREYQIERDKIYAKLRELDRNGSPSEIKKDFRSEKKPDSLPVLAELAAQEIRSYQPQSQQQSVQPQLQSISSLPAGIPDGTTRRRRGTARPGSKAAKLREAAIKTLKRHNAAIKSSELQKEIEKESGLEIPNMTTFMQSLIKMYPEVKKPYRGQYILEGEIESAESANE
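Further: rank score from −0.5 (least bound) to 0.5 (best bound).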

| Sequence | binding signal [E-score] |
| --- | --- |
| CTGTTGGC | -0.196 |
| CCTGATGA | -0.175 |
| GGATACGA | 0.147 |
| ACACGGGG | -0.153 |
| TGAACTAA | 0.0469 |
| GGAGATCA | -0.09 |
| CATGTTGA | -0.0266 |
| TAGAGGAA | -0.102 |
| AACCGCAG | 0.0679 |
| CCTGCGGA | -0.113 |
| ATCCGGAC | -0.147 |
| AAGGGCTG | -0.263 |
| TAAAGCCA | -0.0305 |
| CCCCAATA | -0.201 |
| AGTTAGGC | -0.00656 |
| GTTCCGCA | -0.194 |
| ATCCTGCG | -0.253 |
| CCAATGAG | -0.122 |
| CTAAACCC | -0.0607 |
| CGTCTTCA | -0.18 |
| ACCTTATC | 0.155 |
| CTGTTGAC | -0.176 |
| ATATACTC | 0.288 |
| AAGCCTGA | -0.131 |
| AACACGCA | -0.059 |

| Sequence | binding signal [E-score] |
| --- | --- |
| ACCAATCG | 0.168 |
| CGCGCACG | -0.116 |
| ACTTCGGG | -0.166 |
| GACCCGTC | -0.405 |
| GAACGCGA | -0.116 |
| GTAGCGAA | 0.0427 |
| AGTGTACC | -0.0418 |
| TGAAAGCA | 0.149 |
| ATTACTCG | 0.225 |
| ACCGTGTG | -0.264 |
| ATCCTCCG | -0.372 |
| GGCCGGCA | -0.232 |
| ATACTGGA | 0.0812 |
| CGGGAGGA | -0.27 |
| CCATACTA | 0.318 |
| CGTCGGGA | -0.196 |
| CGACTGAG | -0.126 |
| ACAAACTG | 0.127 |
| AAGACGCC | -0.197 |
| CGGACCCG | -0.187 |
| GGAACCAC | -0.326 |
| GTGGTTTA | 0.128 |
| AGGGGCGG | -0.323 |
| ACGTCTAT | 0.0311 |
| GTCGACAA | -0.15 |

| Sequence | binding signal [E-score] |
| --- | --- |
| CGAAGGGA | -0.25 |
| TAACATCA | 0.239 |
| CTTCTGGC | -0.0909 |
| AATCAACT | 0.143 |
| GTCACACA | -0.0901 |
| AAACACCC | -0.0072 |
| CCGGGGAC | -0.294 |
| CCCGGCAA | -0.238 |
| AGCCTGCC | -0.413 |
| CAACCGCC | -0.241 |
| CGACACTC | 0.00292 |
| AGCAATGG | -0.123 |
| ATTTTTGA | 0.0221 |
| GTAATGAC | 0.089 |
| ACCAAGGT | -0.0988 |
| ATTGTAAA | 0.19 |
| TACACTAA | 0.231 |
| ACACTTAC | 0.125 |
| AATAGCAT | 0.157 |
| CGGCAGGA | -0.23 |
| AGAACAGA | 0.0149 |
| ATTAGGAG | 0.00955 |
| TAGGTGCA | -0.0387 |
| AAATGCTG | -0.0176 |
| ACGGGTTA | -0.0683 |

| Sequence | binding signal [E-score] |
| --- | --- |
| ACAAGGGT | -0.232 |
| ACAGCGAA | 0.0835 |
| AGTACAAA | 0.343 |
| GGCTATCA | -0.0678 |
| CAGATACA | 0.0953 |
| AACGGCCG | -0.141 |
| AGTCAGGG | -0.203 |
| CTAAGTAG | 0.265 |
| CGCATCAG | -0.0908 |
| AGGCCTCC | -0.306 |
| CCCGAATA | -0.0335 |
| AACGCGGG | -0.215 |
| ACAACTCT | 0.13 |
| ACTCTCGA | 0.0258 |
| TAAGGGCA | -0.0713 |
| AATCGAGT | 0.0488 |
| AACTGCCC | -0.229 |
| AGCACTGC | -0.181 |
| ACTGCAAG | -0.0875 |
| GTGCTTTA | -0.00122 |
| AGCCACGC | -0.0645 |
| GCCTTCCA | -0.308 |
| CCGCTAGG | -0.19 |
| CAGGGTTA | -0.0832 |
| AAGCATGC | 0.0123 |

| Sequence | binding signal [E-score] |
| --- | --- |
| CCAGAGAA | 0.0464 |
| CTCAGGGC | -0.361 |
| CGATACGA | -0.0427 |
| TAACGTCA | -0.0277 |
| ACCCGTGC | -0.248 |
| TATACCAA | 0.295 |
| GTTACGTA | 0.169 |
| GGGCGCAC | -0.355 |
| GATACGGA | -0.0623 |
| GCTTCACC | -0.146 |
| GATCCAAA | -0.0512 |
| GGATACAA | 0.00352 |
| GGTAAGAC | -0.193 |
| CCGTAGTA | 0.257 |
| AGAACTTC | 0.0745 |
| AGGAATTC | -0.159 |
| TTACTAAA | 0.32 |
| ATCCCAAC | -0.0756 |
| ACCAGGTG | -0.124 |
| AAGCGACG | -0.171 |
| ACACCGCA | -0.187 |
| CCAGCCTA | -0.263 |
| AAGAGCCG | -0.258 |
| ACCGCCTG | -0.287 |
| CTGACCGC | -0.241 |

| Sequence | binding signal [E-score] |
| --- | --- |
| CTATTTGA | 0.132 |
| GCGCAGGA | -0.089 |
| ATTCGGTG | 0.0753 |
| CTCCGTTA | 0.0963 |
| CTAGCAGC | -0.136 |
| CCTCCACC | -0.401 |
| AACACCTG | 0.00454 |
| ATTGAATC | 0.0739 |
| AGTACTTC | 0.189 |
| GTATTGAA | 0.0952 |
| CGTCGAAG | -0.0689 |
| AAGCCATC | -0.269 |
| GCCCCCCA | -0.471 |
| AGGCTCAT | -0.25 |
| ACTAAATA | 0.3 |
| AATCTGAA | -0.0418 |
| ACCTAAGC | 0.0895 |
| CTGCTAAG | -0.125 |
| GATTTCCA | 0.0352 |
| AGCTCAAC | 0.0145 |
| AACCGTTG | -0.0339 |
| TAGTGATA | 0.331 |
| CGGGGAAG | -0.361 |
| CCACGGCA | -0.123 |
| TCTCCACA | -0.0759 |

| Sequence | binding signal [E-score] |
| --- | --- |
| AGCGTGAA | -0.0805 |
| AGATAACC | 0.084 |
| ATGATGAA | 0.0926 |
| CAACACTG | -0.0392 |
| CCACTAGG | -0.114 |
| CTTATACA | 0.283 |
| AACATATC | 0.284 |
| AGGACCCT | -0.307 |
| CGGTTGAG | -0.0643 |
| ACGCAGTA | 0.125 |
| AGATCACA | 0.119 |
| CCCACCGA | -0.166 |
| AAGATTTA | 0.168 |
| CATGTGAA | -0.1 |
| ATCAATGC | 0.0135 |
| AAGAAGGG | -0.289 |
| ATTTGATG | -0.00991 |
| AAACGAGG | -0.0595 |
| CTTGGCGA | -0.149 |
| GCACGGTA | 0.255 |
| CCCTGTAC | -0.195 |
| GATCAAAC | -0.114 |
